# Laboratory results reported in publication PMC10150492, “Attenuation of reverse transcriptase facilitates SAMHD1 restriction of HIV-1 in cycling cells” (Retrovirology, 2023).
# B1: SAMHD1 T592V (enzyme)
# chain: not shown
# notes: source: E. coli Rosetta 2 (DE3), purified (StrepTactin-XT, PreScission cleavage, GSTrap, Superdex 200); not shown: StrepII, N-terminal, cleaved
# B2: SAMHD1 T592C (enzyme)
# chain: not shown
# notes: as for B1
# B3: SAMHD1 T592D (enzyme)
# chain: not shown
# notes: as for B1
# B4: SAMHD1 T592E (enzyme)
# chain: not shown
# notes: as for B1
# B5: SAMHD1 T592I (enzyme)
# chain: not shown
# notes: as for B1
# B6: SAMHD1 T592K (enzyme)
# chain: not shown
# notes: as for B1
# B7: SAMHD1 T592L (enzyme)
# chain: not shown
# notes: as for B1
# B8: SAMHD1 T592S (enzyme)
# chain: not shown
# notes: as for B1
# Columns and labels:
# [1] = target: the molecule itself; assay: SEC-MALS
# [2] = target: the molecule itself; assay: SEC-MALS; remark: listed apart in the source
Protein,stoichiometry N [1],ftet (fraction tetramer remaining after 3 h incubation with GTP and dATP) [2],"kdec (tetramer decay rate, with GTP and dATP) [2]"
B1,4,0.61 fraction,2.53e-05 s⁻¹
B2,4,0.63 fraction,2.94e-05 s⁻¹
B3,4,0.19 fraction,0.000112 s⁻¹
B4,4,0.36 fraction,7e-05 s⁻¹
B5,4,0.63 fraction,3.07e-05 s⁻¹
B6,4,0.12 fraction,0.000221 s⁻¹
B7,4,0.2 fraction,0.000152 s⁻¹
B8,4,0.68 fraction,2.33e-05 s⁻¹
